Experimental data reported in the supplement of paper PMC12217912.
The other results are listed elsewhere or left out. The full chains were built here from the parent and the listed change. Inactive controls read about 0.05.

B1: TEV protease; numbered along this chain (parent)
chain: MGESLFKGPRDYNPISSSICHLTNESDGHTTSLYGIGFGPFIITNKHLFRRNNGTLVVQSLHGVFKVKDTTTLQQHLVDGRDMIIIRMPKDFPPFPQKLKFREPQREERICLVTTNFQTKSMSSMVSDTSCTFPSGDGIFWKHWIQTKDGQCGSPLVSTRDGFIVGIHSASNFTNTNNYFTSVPKNFMELLTNQEAQQWVSGWRLNADSVLWGGHKVFMVKPEEPFQPVKEATQL

Variants of: B1
Assay: raw area under fraction-flipped curve 0-4 h after induction (AUC4h, not background-subtracted), DNA-recorder readout of cleavage of the substrate (dimensionless); higher = more cleavage of the substrate by the protease variant
Settings: temperature: 34 °C; time window: 0-4 h after rhamnose induction
Description: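 In vivo DNA recorder in E. coli TOP10(DE3) ΔrhaA at 34 °C. Each TEVp single-site mutant (parent TEVp 0) is paired with a single-site variant of the 7-mer TEVs (canonical ENLYFQ|S). The substrate sits between flexible linkers in a Bxb1-sfGFP-TEVs-SsrA fusion, so cleavage stabilises Bxb1 and speeds flipping of a recombination array, read by NGS. The value is the raw area under the fraction-flipped curve over 0-4 h after rhamnose induction (AUC4h), with ≥20 reads per time point. It is not background-subtracted; inactive controls average about 0.047.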
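Also: Bxb1 expression induced with 0.2% (w/v) L-rhamnose at OD600 near 0.5, cultures sampled hourly, flipped fraction per protease–substrate barcode pair counted by paired-end Illumina sequencing.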

Row | Variant | area with substrate ENAYFQS | area with substrate ENDYFQS | area with substrate ENEYFQS | area with substrate ENFYFQS | area with substrate ENGYFQS | area with substrate ENIYFQS | area with substrate ENKYFQS | area with substrate ENQYFQS | area with substrate ENTYFQS | area with substrate ENVYFQS | area with substrate ENWYFQS | area with substrate ENHYFQS | area with substrate ENMYFQS | area with substrate ENNYFQS | area with substrate ENSYFQS | area with substrate ENPYFQS | area with substrate ENRYFQS | area with substrate ENCYFQS | area with substrate ENYYFQS
1 | Q74E | 0.053 | 0.0592 | 0.0644 | 0.0546 | 0.0595 | 0.119 | 0.0625 | 0.0574 | 0.0684 | 0.0853 | 0.0465 | – | – | – | – | – | – | – | –
2 | Y34G | 0.0105 | 0.0611 | 0.055 | 0.0561 | – | – | 0.0603 | 0.0543 | – | 0.0515 | 0.0533 | 0.0546 | 0.0568 | 0.0386 | 0.0479 | – | – | – | –
3 | A196Q | 0.0549 | 0.0631 | – | 0.0705 | 0.0634 | – | – | 0.0577 | 0.0554 | – | – | 0.0604 | 0.0607 | 0.0648 | 0.0728 | 0.0546 | 0.064 | – | –
4 | H215R | 0.0587 | 0.0602 | 0.0597 | 0.0666 | 0.0426 | 0.14 | – | 0.0596 | – | 0.0559 | – | 0.0431 | 0.0458 | 0.0771 | 0.0602 | 0.0624 | – | 0.054 | –
5 | F117K | 0.0552 | – | 0.0703 | – | 0.0636 | 0.0727 | 0.0612 | 0.0668 | 0.06 | 0.0766 | 0.0546 | 0.0688 | 0.066 | 0.0626 | 0.0503 | 0.0653 | 0.0905 | 0.0474 | 0.0645
6 | K230T | 0.0875 | 0.0751 | 0.066 | 0.0834 | – | 0.0981 | 0.0566 | 0.0634 | 0.0764 | 0.0344 | 0.066 | 0.0641 | 0.0875 | 0.0432 | 0.0816 | – | 0.0577 | 0.0686 | 0.0669
7 | K66V | 0.0549 | 0.0643 | 0.0557 | 0.0504 | – | – | – | – | – | – | 0.0415 | 0.0641 | 0.0788 | 0.0568 | 0.0547 | 0.0644 | – | 0.0655 | –
8 | N175D | 0.0641 | 0.0618 | 0.0665 | – | 0.0628 | 0.0549 | 0.0745 | 0.0585 | 0.0631 | 0.0688 | – | 0.051 | 0.0748 | 0.0519 | 0.0462 | – | – | 0.0635 | 0.0554
9 | Q151C | 0.0591 | 0.0623 | 0.0646 | 0.0618 | 0.072 | 0.0856 | 0.0285 | 0.062 | 0.062 | 0.0715 | – | 0.0631 | 0.0629 | 0.0635 | 0.0729 | – | 0.0581 | 0.057 | –
10 | F38L | 0.0572 | 0.0584 | 0.0558 | 0.0507 | 0.0553 | 0.0786 | 0.0613 | 0.0561 | 0.0839 | 0.0785 | – | 0.0561 | 0.0661 | 0.0561 | 0.0568 | 0.0562 | 0.0608 | 0.0697 | 0.0567
11 | I15A | 0.0601 | 0.0644 | 0.0585 | 0.0561 | 0.0594 | – | 0.0642 | 0.0659 | 0.05 | 0.0677 | 0.0467 | 0.0625 | – | 0.0527 | 0.0539 | 0.0724 | 0.0589 | 0.0579 | –
12 | F173S | – | 0.0932 | 0.0776 | 0.0554 | 0.054 | – | 0.0711 | 0.0621 | 0.0653 | 0.0685 | – | 0.0656 | – | 0.0664 | 0.0858 | 0.0861 | 0.0634 | 0.0404 | 0.0676
